From PubChem BioAssay (NCI)
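Values below derive from 48-hour exposures of cells grown in 96-well plates, with endpoints linearly interpolated between the two concentrations bracketing the appropriate inhibition level. TGI marks complete inhibition of growth.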 Certain results were filed several times, with different values. The list is limited to them. There may be further records. The records of an entry are repeats in other runs, samples, wells, individuals or studies. What stands in brackets tells the records apart. A, B and so on number the origins entry by entry.

Test system: MDA-MB-468 breast
Experiment: NCI anticancer screen, dose series, 48 h

SMILES: CCN(CC)CCCC(C)Nc1cnc(C(=O)Nc2cc(F)cc3cccnc23)cn1 (stereo unspecified)
- TGI: 13.6 µM [sample A, 1 test] and 1.34 µM [sample B, mean of 2 tests]
